PubChem BioAssay AID1345083 (National Center for Advancing Translational Sciences (NCATS), 2018)
About 6,200 (6.6%) of roughly 94,000 compounds were called active. The inconclusive results got no clear call from the source; some entries with a clear call stand among them for comparison. Calls come from the whole dose curve; as a rule, active = well fitted inhibition curve with a large enough effect; inconclusive = small, poorly fitted or top-dose-only effect; inactive = flat fitted curve, though single readings scatter. A potency beside an inconclusive call is a rough fit, not a confirmed value.

Test: Cytotoxic Profiling in HEK 293 Cell Line of Diverse Libraries Using Quantitative High-Throughput Screening; note: nearly all actives have a fitted effect of over 60% in size
Conditions: HEK 293 viability, ATP luminescence (CellTiter-Glo), 48-72 h; activity change, negative = cytotoxicity: at 115 µM (top of the series) unless noted; series mostly up to 115 µM
Outline: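 Cytotoxicity was scored by loss of ATP-coupled luminescence (CellTiter-Glo) in HEK 293 cells. Compound treatment ran 48 or 72 hr at 37 degree Celsius, 5% CO2, 95% humidity.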
% is set by controls: 0 for no effect and ±100 for the full control effect; potency is the fitted concentration of half-maximal effect; tags give direction and shape of the fitted curve.

Row | SMILES | Potency | activity change, negative = cytotoxicity
1 | CCN(C(=O)Cn1cccc1-c1nc(-c2ccccc2)no1)c1cccc(C)c1 | inconclusive: 44.7 µM [inhibitor, partial curve, poor fit] | 
2 | CCCc1ncncc1C(=O)NC1CC(c2nnc(CO)n2C2CC2)C1 (configuration not stated) |  | inactive: -2.41%
3 | COc1ccc(CCNC(=O)Cn2cccc2-c2nc(-c3ccc(F)cc3)no2)cc1OC | inconclusive: 89.1 µM [inhibitor, single point] | 
4 | O=C(Nc1ccc(Cl)cc1)N1CCN(c2ccc3nnc(C4CC4)n3n2)CC1 | active: 35.5 µM | 
5 | CCc1ccccc1-n1nc(-c2c(C)nc3scc(CC(=O)NCC(C)C)n3c2=O)cc1C | inconclusive: 89.1 µM [inhibitor, single point] | 
6 | COCCOC(=O)C1=C(C)N=C2SC=C(CC(=O)NCc3cccc(F)c3)N2C1c1ccccc1 (configuration not stated) | inconclusive: 89.1 µM [inhibitor, single point] | 
7 | COc1cccc(CCC(=O)Nc2cccc(-c3nnc4n3CCCC4)c2)c1 | inconclusive: 70.8 µM [inhibitor, partial curve, poor fit] | 
8 | O=C(c1cccnc1)N1CCCN(c2ccc3nnc(-c4ccccc4)n3n2)CC1 |  | inactive: -23.8%
9 | CC(C)(C)c1ccc(C(=O)N2CCN(c3cc(C(F)(F)F)ncn3)CC2)cc1 | inconclusive: 39.8 µM [inhibitor, partial curve, poor fit] | 
10 | CO[C@H]1C(=O)N(C(C)C)[C@H]1C1CCN(C(=O)CCc2nc3ccccc3s2)CC1 |  | inactive: -5.31%
11 | Cc1oc(C(O)c2ccccc2F)nc1C(=O)Nc1ccccc1 (configuration not stated) | inconclusive: 70.8 µM [inhibitor, partial curve] | 
12 | CCCNC(=O)CC(c1ccc(F)cc1)c1c[nH]c2ccccc12 (configuration not stated) | inconclusive: 50.1 µM [inhibitor, partial curve, poor fit] | 
13 | Cn1ncc2c(C(=O)N3CCCC3)cc(-c3ccc(Cl)cc3Cl)nc21 | inconclusive: 35.5 µM [inhibitor, partial curve, poor fit] | 
14 | CC1Oc2ccc(NC(=O)c3ccccc3Cl)cc2CN(Cc2ccc3c(c2)OCO3)C1=O (configuration not stated) | inconclusive: 44.7 µM [inhibitor, partial curve] | 
15 | Cn1ncc2c(C(=O)Nc3ccnc(Cl)c3)cc(-c3ccc(C(F)(F)F)cc3)nc21 | inconclusive: 12.6 µM [inhibitor, full curve, poor fit] | 
16 | CCCN1CCC2(CCN([S+](=O)([O-])c3c(C)noc3C)CC2)Oc2ccccc21 | inconclusive: 50.1 µM [inhibitor, partial curve, poor fit] | 
17 | O=C(c1ccc(C(F)(F)F)cc1)N1CCN2C(=O)N(Cc3ccc(F)cc3)C[C@H]2C1 | inconclusive: 79.4 µM [inhibitor, partial curve] | 
